Measurements taken from the RNAGym collection of RNA variant scans (doi:10.7554/elife.90254).
Read counts are not given, so values of variants with three or more changes are uncertain.

B1: OR4K15 (parent)
chain: GUUAACGGUCAUAGGCCAUGGAAACUAGGAGCACCAUUUCGCUGCCAGUGAAGAAAUGAACAAAGAAAAUCUGGGCCAGGCAGGCAUCAAAAGAAAUAGUCUUGCGCUCAACCAGAAAGUCUGUAAUCAUUUUAAGGGUA

Variants of: B1
Assay: self-cleavage, relative activity (ratio to wild type); higher = more cleavage; in vitro, sequencing; the parent is a self-cleaving ribozyme

| Variant | self-cleavage |
| --- | --- |
| U39C U87C A91U A96G | 1.76 |
| U43C G75C A90G U108G | 0.03 |
| U43C U120C A129G | 0.46 |
| U43A A54U U72A | 0.11 |
| A47U A51G A95G | 1.69 |
| A47G U70A A94U | 1.11 |
| A47G A64U A82U | 0.12 |
| U43C A91G A96G | 0.76 |
| U43C A59U A91G | 1.19 |
| U43A A52G U70C | 0.49 |
| G41A U72A U120C | 0.05 |
| U43G G65A A94G | 2.03 |
| A47G A54G U108C | 0.02 |
| U43C A55G A67G A90G | 1.11 |
| U43C A59G U139G | 1.38 |
| A47G U49C A82G U103C U122C | 1.57 |
| U43C C76U A118G | 0.02 |
| A47C U103C U139C | 1.53 |
| U43G A51G A140G | 2.34 |
| U43C A52U A98G U127C U133C | 0.23 |
| U43C A55G A68G U120C | 0.53 |
| U43A A111G A129G | 0.04 |
| U43C A54G A114G U133C | 0.89 |
| U43A A82G A91G U120C | 0.06 |

| Variant | self-cleavage |
| --- | --- |
| G41A A63G A68G A140U | 1.38 |
| U43A A78G A91G U131C U139A | 0.14 |
| U43A C85U U103C U124A U130C | 0.05 |
| U43A U72C U131C | 0.08 |
| G41A U57A A60G A92G U139C | 0.53 |
| A47C A51G U103C A125G A140U | 0.36 |
| U43C A62G A98G U127C | 0.15 |
| U43C U103C A118G | 0.61 |
| U43A U49C A78G A94G A96G | 0.12 |
| A47G U49C A56G C61U | 1.24 |
| G44U U70C A96G | 1.15 |
| G41A U97A C128U | 1.27 |
| A47G A54U U108C A118G | 0 |
| U43C A59G U70C U87C A134U | 0.68 |
| U43C A69U A117G | 1.82 |
| C45U A64G U103C U130C | 0.12 |
| U43C U122C A140G | 1.74 |
| A47G A96U U139A | 1.07 |
| U43C A89G A98U U130C | 1.37 |
| U43C A54G A55U A78U U108C A117U A126G | 0 |
| A47G A110U A111G A114G | 0.01 |
| A47G A91G U102C U124A | 0.51 |
| A47G G75C A114U | 0.01 |
| U39C U102C A140G | 2.77 |

| Variant | self-cleavage |
| --- | --- |
| U43C A55G C61G A116G U120A | 0.11 |
| U43A A52G U87C A129G | 0.78 |
| A47G U103C U127C | 0.26 |
| U43A A60U A67G | 1.36 |
| G44A U57C A91G | 0.34 |
| U43C A96G A110C A126G | 0.21 |
| U43A A68G A82G A94G A129G U132G | 0.21 |
| U39G A55G A69G A98G A118G U130C | 0.1 |
| G41U U49C A59G A90G A114U | 0.03 |
| U43C A82G A96G A111C | 0.01 |
| G44C A90U U100A | 1.22 |
| C42A A63G A95G A126G | 1.28 |
| A47G U102C U122C | 1.73 |
| U43C U103C A116G U132C | 0.1 |
| U43C A47U U49C U102C | 1.09 |
| A47G U57C U132C | 0.74 |
| U43A U87C A135G | 1.31 |
| U43C A78G A90G | 0.23 |
| U43C A69G G75U | 0.1 |
| A47G U100A G115U | 0.01 |
| C45U U70C A89G A96G | 1.1 |
| G44A A55G A60U A64G | 1.08 |
| C46A C121U U131C | 0.7 |
| G41A A82G A91G U122A | 0.07 |

| Variant | self-cleavage |
| --- | --- |
| U43A U120C U130C U132C | 0.24 |
| U43G A86U U102A U132C | 0.92 |
| U39C U97C A140C | 1.02 |
| G41A A68U A94G U102C | 2.33 |
| A47G G119A U124C | 1.09 |
| A47G A62G A134G | 0.34 |
| A47G A69G U139A | 0.55 |
| G41A A62G A78U U120C A140G | 0.25 |
| U43C U87C A95G U103C G123A | 0.54 |
| A47C A78G A92G U120C U131G | 0.05 |
| U43A A96U U139A | 1.89 |
| A47G A118G U131C | 0.2 |
| U43A A66G A117G | 2.63 |
| A47G A51U A55G A111C U130C | 0.03 |
| G44A A56U A89U | 2.1 |
| A47G U108C U122C | 0.01 |
| A47G A51U A56G U57C A60G A63G | 1.19 |
| G41A A118U U124C | 0.23 |
| U43C A51G A92G A134G G137A | 2.4 |
| U43C A51U A69U A92G | 1.68 |
| G44A A96G U120C G136A G138A | 1.06 |
| G41A A68G A78U A110C U120C U127C | 0.01 |
| U43A A62G U87C U127C | 0.81 |
| A47G U49C A69G | 0.67 |

| Variant | self-cleavage |
| --- | --- |
| U43A A68G U72A U97C | 0.08 |
| U43C A60G A111G A140G | 0.03 |
| U43A A56G A67G A114U | 0.09 |
| U43A A52G A59G U97C | 0.74 |
| C46U U72C A78G A82U U122A | 0.24 |
| A47G A68G A90G | 0.95 |
| U43C A96G U108C | 0.01 |
| C45G A54C A60G | 1.07 |
| U39C U72C A86U A96G | 0.05 |
| U43C A68G A94U | 2.91 |
| A47C A66U A94G | 1.88 |
| A47C A86G U103C | 0.26 |
| U43C A47G A55G U130C | 0.5 |
| U43A A54G A82U U87A U124A U131C | 0.04 |
| A47G A96G U120A | 0.99 |
| U43C G48U A67G A96G | 1.6 |
| A47U A51G A52G A91G U108C | 0 |
| A47G A62G A68G A78C A86G A117G | 0.06 |
| C40U A90G A118U | 0.38 |
| A47G A52G A68G A117G | 1.5 |
| C40U A63U A110G | 0.06 |
| C42U U43C A56G C121U | 1.78 |
| U43A A54U A117G A135G | 1.53 |
| U43C A63U A68G | 1.57 |

| Variant | self-cleavage |
| --- | --- |
| U43C A51G U132A | 1.31 |
| C40A A55G U97C U132C | 0.48 |
| U43C A47G A51U | 1.53 |
| U43C U103C U124C A140C | 0.68 |
| U43C A90G A140G | 1.12 |
| U43A A67G G104A | 0 |
| A47G A51G A60G U87C | 0.69 |
| U43C A62G A86U A92U | 1.55 |
| U43C A66G A86G U100C A117G | 2.58 |
| A47G A68U U132C | 0.71 |
| U43C A54G U108A | 0.03 |
| U43C A51G U87A A117G | 2 |
| U43C G106U A118G | 0 |
| G41A A59G A66G U100C | 1.58 |
| A47G A66G A94U U102C | 0.43 |
| A47G A89U U102C U103C | 0.14 |
| U43G C61U A69G | 1.32 |
| A47G A89U A140G | 1.31 |
| C40A A64G U103C | 0.54 |
| C45G A114U U132A | 0.06 |
| C42G A59G A68G A91G U100C | 1.32 |
| U43C A62G U70C A92G A95U A110G | 0.1 |
| U43C A82G A135G | 0.43 |
| U43C U87C A96G | 1.63 |

| Variant | self-cleavage |
| --- | --- |
| U43A A51U U131C U132C | 1.13 |
| C42U U43C A91G U100C | 0.68 |
| G41A A55G C77U | 1.17 |
| C40U G79A G83A | 0.09 |
| A47G A68G A117G U132C | 1.4 |
| A47G A60G U100C | 1.51 |
| U43A A56C A110G | 0.09 |
| U43C A51G A69G A116G | 0.39 |
| U43A A96G U108C | 0.02 |
| U43A A64G A68G U139A | 1.25 |
| U39G A47G A67G U97C | 0.63 |
| A47G A94U U103C | 0.87 |
| U43C U97C A117G | 1.33 |
| C40U U100C U108C | 0 |
| U43C U100C A116G A126G A140U | 0.9 |
| U43C A95U A110G A116G | 0.03 |
| A47G A67G A114G | 0.45 |
| U43C A68G U97C A98C | 0.73 |
| U43C A55G G104A U122A | 0.02 |
| U43G A54G A118G | 2 |
| C42U A66G U103A U120C | 0.55 |
| A47G A63G A89U U122C A134G | 1.07 |
| G41A A52U G79A | 0.11 |
